# About 6,400 (1.6%) of roughly 410,000 compounds were called active. This list was built around the results that the source calls inconclusive (neither active nor inactive); the mix of calls is not that of the screen. The call rests on the fitted dose curve; in most records, active means well fitted inhibition curve with a large enough effect; inconclusive means small, poorly fitted or top-dose-only effect; inactive means no such curve, though single readings can be large or run the other way. No potency is given beside an inconclusive call; the fits are too rough.
# Target: Glucagon-like peptide 1 receptor (Homo sapiens) (UniProt P43220)
# Test: qHTS of GLP-1 Receptor Inverse Agonists (Inhibition Mode); further: nearly all actives have a fitted effect of over 55% in size
# Settings: HEK293 GLP-1R CRE-luciferase, luminescence, 24 h, GLP-1R form is constitutively active; series mostly up to 38.3 µM
# Summary of the method: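 qHTS in 1536-well format: reporter HEK293 cells expressing constitutive GLP-1R activity in DMEM + 10% Nu serum, 24 hr with compounds at 37 deg C, luminescence read after 12 min with detection reagent.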
# Potency means the concentration at half of the fitted maximal effect; tags describe the fitted curve by direction and shape.
# Sequence of UniProt P43220 (P43220 whole entry, looked up): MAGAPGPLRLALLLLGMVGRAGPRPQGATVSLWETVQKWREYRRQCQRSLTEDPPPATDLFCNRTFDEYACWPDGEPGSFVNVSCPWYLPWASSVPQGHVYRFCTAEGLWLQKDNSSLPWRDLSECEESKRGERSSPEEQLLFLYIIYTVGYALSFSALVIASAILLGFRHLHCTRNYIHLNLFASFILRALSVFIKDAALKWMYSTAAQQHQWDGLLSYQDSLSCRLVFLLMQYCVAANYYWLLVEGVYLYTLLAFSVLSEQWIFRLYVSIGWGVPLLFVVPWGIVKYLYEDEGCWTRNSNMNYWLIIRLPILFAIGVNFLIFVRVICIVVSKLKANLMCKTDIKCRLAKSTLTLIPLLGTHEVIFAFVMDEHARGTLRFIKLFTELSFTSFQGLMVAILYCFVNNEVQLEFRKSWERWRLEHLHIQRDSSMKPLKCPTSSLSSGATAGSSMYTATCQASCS
row,SMILES,Potency
1,O=C(O)c1ccc(Cl)c(S(=O)(=O)N(Cc2ccccc2)c2ccccc2Cl)c1,"inconclusive [inhibitor, single point]"
2,COc1c(OC(C)=O)ccc(/C=C/c2ccc3cccc(OC)c3n2)c1[N+](=O)[O-],"inconclusive [inhibitor, single point]"
3,CC(C)=CCCC(C)N(C=O)C(C)CCC=C(C)C (stereo not drawn),"inconclusive [inhibitor, partial curve]"
4,CCC[n+]1c(C)sc2c3c(ccc21)CCCC3,"inconclusive [inhibitor, single point]"
5,O=C(c1ccc2c(c1)OCO2)N1CCC2(CC1)Oc1ccc(F)cc1C(=O)C21CC(c2ccc(Cl)cc2)=NO1 (stereo not drawn),inactive
6,O=C(N/N=C/c1ccnc2ccccc12)c1ccccc1O,inactive
7,COc1ccc2nc3ccccc3nc2c1,inactive
8,O=C(CSc1nnc(C2CC2)n1C1CC1)N1CCN(c2ccc(O)cc2)CC1,"inconclusive [inhibitor, single point]"
9,COc1ccc(OC)c(C(=O)COC(=O)c2[nH]c(C)c(C(C)=O)c2C)c1,inactive
10,COc1cccc(OCCNc2ccc([N+](=O)[O-])cn2)c1,"inconclusive [inhibitor, single point]"
11,CC#CCN1c2ccccc2[C@]23C[C@@H](C(=O)OC)N(C(=O)c4ccc(Br)cc4)C2=NC(C(=O)OC)=C(C(=O)OC)[C@H]13,"inconclusive [inhibitor, partial curve, poor fit]"
12,O=C(NCc1ccco1)C1Cc2c(-c3ccccc3Oc3ccccc3)ccnc2O1 (stereo not drawn),"inconclusive [inhibitor, partial curve, poor fit]"
13,COC(=O)C1=C(C)NC2=C(C(=O)CCC2)C1c1cn(Cc2ccc(Cl)cc2Cl)nc1-c1ccccc1 (stereo not drawn),"inconclusive [inhibitor, single point]"
14,Cc1ccc(N(CC(=O)Nc2cccc(C)c2)S(=O)(=O)c2cccc3nonc23)cc1,"inconclusive [inhibitor, single point]"
15,N#Cc1ccc(-c2ccc(OCC(O)Cn3nnc4ccccc43)cc2)cc1 (stereo not drawn),"inconclusive [inhibitor, single point]"
16,COc1ccc2[nH]c3c(c2c1)CCNC3(C)CCc1ccc(Cl)nc1 (stereo not drawn),"inconclusive [inhibitor, single point]"
17,CCOC(=O)C(=Cc1ccc(N(C)C)cc1)C(=O)c1ccccc1,"inconclusive [inhibitor, partial curve, poor fit]"
18,CN(C)C1=NCCN1CC1CCCCCC1,inactive
19,Cc1onc(-c2ccccc2)c1C(=O)Nc1nc(-c2ccc(F)c(F)c2)cs1,"inconclusive [inhibitor, partial curve, poor fit]"
20,CC(=O)c1sc(NC(=O)C2COc3ccccc3O2)nc1C (stereo not drawn),"inconclusive [inhibitor, partial curve, poor fit]"
21,COc1ccccc1C(CCNCc1ccccc1)c1ccc(OC(C)C)cc1 (stereo not drawn),"inconclusive [inhibitor, partial curve, poor fit]"
22,O=C(c1cc(-c2ccccc2)nc2ccccc12)N1CCc2ccccc2C1,active: 11.2 µM

row,SMILES,Potency
1,CC(N=c1ccccn1C(=O)Nc1ccc(F)cc1)c1ccco1 (stereo not drawn),inactive
2,CS(=O)(=O)c1ccccc1C(=O)NCCC(c1ccccc1)c1ccccc1,"inconclusive [inhibitor, single point]"
3,CC(=O)c1cccc(NC(=O)NCCc2c[nH]c3ccccc23)c1,"inconclusive [inhibitor, single point]"
4,CCCc1cc(=O)n2[nH]c(-c3ccc(Br)cc3)cc2n1,"inconclusive [inhibitor, single point]"
5,COc1ccc(-c2cc(C(F)F)n3ncc(C(=O)N4CCc5ccccc54)c3n2)cc1,"inconclusive [inhibitor, full curve]"
6,COc1cccc(NC(=O)c2oc3ccccc3c2NC(=O)c2ccc(OC(C)C)cc2)c1,inactive
7,CC(NC(=O)C1CCN(C(=O)Nc2ccccc2)CC1)c1ccc(Cl)cc1 (stereo not drawn),"inconclusive [inhibitor, partial curve]"
8,CCc1ccc2c(Cl)c(C(=O)N/N=C/c3c[nH]c4ccccc34)sc2c1,inactive
9,CCc1cccc2c(C(=O)COC(=O)c3c(C)noc3C)c[nH]c12,"inconclusive [inhibitor, single point]"
10,Nc1c(S(=O)(=O)c2cccs2)c2nc3ccccc3nc2n1Cc1ccccc1,inactive
11,CCNc1nc(SCc2ccccc2)nc(N2CCOCC2)n1,"inconclusive [inhibitor, single point]"
12,CC(C)C[C@H](NC(=O)c1[nH]cnc1C(=O)N[C@@H](C)C(=O)OCc1ccccc1)C(=O)OC(C)(C)C,"inconclusive [inhibitor, partial curve, poor fit]"
13,COc1cccc(C(=O)NCCc2sc(-c3cccc(C)c3)nc2C)c1,"inconclusive [inhibitor, single point]"
14,CCOc1cc(S(=O)(=O)Nc2ccc(CC)cc2)ccc1Cl,"inconclusive [inhibitor, single point]"
15,COCCOC(=O)C1=C(C)NC(=S)NC1c1ccc(OCC(=O)N2CC(C)OC(C)C2)c(OC)c1 (stereo not drawn),inactive
16,Cc1cccc(C)c1NC(=O)c1cc(S(=O)(=O)N2CCCc3ccccc32)ccc1F,active: 3.16 µM
17,Cc1ccc(-c2cc(C(=O)N3CC(C)OC(C)C3)c3ccccc3n2)o1 (stereo not drawn),inactive
18,Cc1cc2sc3ccc(C#CC4(O)CCCCC4)cc3c(=O)c2cc1C,"inconclusive [inhibitor, full curve, poor fit]"
19,C=CCn1c(-c2cccn(Cc3ccc(Cl)cc3)c2=O)n[nH]c1=S,inactive
20,CC(C)c1ccc(NC(=O)C(Cc2ccccc2)n2cccc2)cc1 (stereo not drawn),"inconclusive [inhibitor, single point]"
21,Cc1ccc(Sc2ncccc2C(=O)N(C)Cc2cccs2)c(C)c1,"inconclusive [inhibitor, single point]"
